Experimental data as given in the RNAGym collection of RNA variant scans (doi:10.1093/nar/gkz1192).
The source gives no read counts; variants with many changes may rest on few reads.

B1: CPEB3 Ribozyme (parent)
chain: UAACAGGGGGCCACAGCAGAAGCGUUCACGUCGCAGCCCCUGUCAGAUUCUGGUGAAUCUGCGAAUUCUGCUGUAUAUCUC

Variants of: B1
Experiment: self-cleavage, relative activity (ratio to wild type); higher = more cleavage; in vitro, sequencing
Outline: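 Libraries of CPEB3 self-cleaving ribozyme mutants came from rounds of error-prone PCR and carried barcodes, which DNA sequencing matched to variants. In vitro transcription used T7 RNA polymerase at 37°C for 5 hours, with a further 15 min in DNase I before EDTA stopped the reaction; the ribozymes cleaved during both steps. The RNA was reverse transcribed with template switching and sequenced on Illumina. Relative activity is the cleaved/total read fraction of a variant divided by that of the unmutated ribozyme, averaged over three batches with at least 5 reads.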
A15G A20G C39U U69A U72A showed a self-cleavage of 0.07. A15C A45U U48C U54A A75U showed a self-cleavage of 0.08. In the case of A15G A21G U25C A65G U72C, the self-cleavage is reported as 0.12. C14A A35U U72C U80C showed a self-cleavage of 1. In the case of A15C G24A U66G, the self-cleavage is reported as 0.26. A15G A18U U26C A28U U60C showed a self-cleavage of 0.33. Work on C14U A35G U60C yielded a self-cleavage of 1.28. C14G A15G A28U showed a self-cleavage of 0.33. Variant A15C G52A U60C has a self-cleavage of 0.28. A15C G19A A64G U72A gave a self-cleavage of 0.13. In the case of C14U U41G U49C G55C U58C, the self-cleavage is reported as 0.13. With A15C A18U U31C U54A C71A U74A A75U the self-cleavage was 0.09. For A13U U69G C79U, the self-cleavage was 0.35. For C14A U54C G63A C68A U72C, the self-cleavage was 0.23. With C14U U41C A56G A57G the self-cleavage was 0.49. In the case of A15C A18G C59U A64U, the self-cleavage is reported as 0.07. Work on C14U C40U A64U G70A U72G yielded a self-cleavage of 0.14. Work on C14A A28G A45G U51C yielded a self-cleavage of 0.33. Work on A15G A21G A65G U80A yielded a self-cleavage of 0.28. Variant A15G A18U A45G U54A U72C has a self-cleavage of 0. In the case of A15G A20U U31G A45U U60A, the self-cleavage is reported as 0.07. In the case of A15G A20G G30U, the self-cleavage is reported as 0.42. C14A A18U A28G G42U A56G U58A C62G showed a self-cleavage of 0.03. A15G A18U G46A A47U C71G C79G gave a self-cleavage of 0.08. Work on A15C A18G A45G yielded a self-cleavage of 0.04. A15C U26C C32U A45U showed a self-cleavage of 0.1. Work on A15G A20G U25A A28G U41A A64G yielded a self-cleavage of 0.09. Variant A15G A20G C40U U48C has a self-cleavage of 0.08. A15G A20G U25C U51A C68G showed a self-cleavage of 0.06. A15G A18G A57G C71U gave a self-cleavage of 0.18. In the case of A15G A20G A28U A45U C62U U72A, the self-cleavage is reported as 0.1. For A15C U31C A56G U80A, the self-cleavage was 0.33. With C14U U31A C38A U41C U51G the self-cleavage was 0.09. Work on A15G A18G U54A U67C yielded a self-cleavage of 0.12. A15G A20G U25A U60A U69A U74C A75U gave a self-cleavage of 0.02. A15C U26C G36A U43C C68A gave a self-cleavage of 0.29. Variant C14U A15G A35G has a self-cleavage of 1.23. In the case of C14A U41C U51A A56U U67A, the self-cleavage is reported as 0.66. For A15C A35U U72A, the self-cleavage was 0.82. Work on C14G A15C C79U yielded a self-cleavage of 0.37. Variant A15G A20U U31C U48C A64G U69A has a self-cleavage of 0.07. With C14A A15G U60C the self-cleavage was 0.32. For A15C U43C U49C U69A U74C, the self-cleavage was 0.18. With A15G A18G A28G U43A U76G A77G the self-cleavage was 0.14. With A15G A18G U25C C39U U67C U69A the self-cleavage was 0.11. Variant C14G A28U U48C U54A has a self-cleavage of 0.23. A15C A20G U31C U41C A65G gave a self-cleavage of 0.28. In the case of A15G A20G A35G, the self-cleavage is reported as 0.39. Work on A15C U25C U26G A56G yielded a self-cleavage of 0.31. For A15G A21G U43C, the self-cleavage was 0.4. A15G A18G G46A U58C U60C gave a self-cleavage of 0.14. In the case of A15G A28G A47G, the self-cleavage is reported as 0.37. C14U U43C A45U U51C gave a self-cleavage of 0.12. With A15C C38U A57G U58C the self-cleavage was 0.11. Work on C14U U31C U41A U48C U78A yielded a self-cleavage of 0.14. C14G A20C U26A A65G U80C gave a self-cleavage of 0.14. For A15G A18U U25A C29U U31A A45G U67A, the self-cleavage was 0.05. With C14A A15G U41A the self-cleavage was 0.18. C14A A18G U31C U43A showed a self-cleavage of 0.19. For C14U A18G A28G U31A U67C U69C U80C, the self-cleavage was 0.04. Variant A15G A21G U25C C29U U43C U69C U80C has a self-cleavage of 0.02. In the case of C14A A15U U31A U41C, the self-cleavage is reported as 0.44. For A15C G33C A35C U51A U60A, the self-cleavage was 0.04. For A15C G36A A47U, the self-cleavage was 0.06. Work on A15G A28G C29U yielded a self-cleavage of 0.37. In the case of A15G A20G U48C A57G, the self-cleavage is reported as 0.77. C14U U43C A47U showed a self-cleavage of 0.09. In the case of A15C A57G A64G, the self-cleavage is reported as 0.64. In the case of C14U A35G A64U, the self-cleavage is reported as 1.25. C14A A15G A47U U60C showed a self-cleavage of 0.16. C14U A20G U26C U31C G73U A75G U80C showed a self-cleavage of 0.14. C14U A35G C39A U54C U67C U78C U80C showed a self-cleavage of 0.07. Variant A15G A21G A45U has a self-cleavage of 0.39. In the case of A15C A20G U51A A65G, the self-cleavage is reported as 0.16. Variant A15C U25A U43A C50A U69A U74C has a self-cleavage of 0.06. Variant C14A A18G A56G has a self-cleavage of 0.58. C14U A18C G63C U72C gave a self-cleavage of 0.16. Variant A15C A18G C32A A35U has a self-cleavage of 0.42. Variant A15C A35G U51A U74A has a self-cleavage of 1.23. Work on A15C C37U U43C U80A yielded a self-cleavage of 0.18. Variant A15G A28G A35G U41C U54A has a self-cleavage of 0.21. A15G A21U U69A A77U U78A showed a self-cleavage of 0.06. A15C A21G U54G showed a self-cleavage of 0.27. With A15G A18G A35U the self-cleavage was 0.31. In the case of A15G A18U U54C A64G, the self-cleavage is reported as 0.41. For C14U U41A U60C A64U, the self-cleavage was 0.11. Work on C14A C23U A64U C79A yielded a self-cleavage of 0.02. C14U A18G U25C A35G gave a self-cleavage of 0.09. With C14U A56G U80C the self-cleavage was 1.13. Variant C14U C38G C40A A57G U58C has a self-cleavage of 0.17. Variant A15G A18U U41A U49C A64G A77G U78C has a self-cleavage of 0.08. Work on A15G A20U A65G U69A U72C yielded a self-cleavage of 0.13. Work on A15G A18G C29U U41C A56G yielded a self-cleavage of 0.13. In the case of A15C U26A U43C, the self-cleavage is reported as 0.35. Work on C14A C17G A56G G70U U80A yielded a self-cleavage of 1.25. A15G A18G A21U G33A C40A U54C A64G gave a self-cleavage of 0.22. A15C U26A U41A U43C gave a self-cleavage of 0.08. For A15G A21G A56G U60C U66A U74C, the self-cleavage was 0.12. Variant C14U U41A A45U has a self-cleavage of 0.27. C14U G46A U78C gave a self-cleavage of 0.42. With A13U U72C U76G the self-cleavage was 0.96. C14A A57G A65G gave a self-cleavage of 0.55. A15G A20G G36A gave a self-cleavage of 0.41. A15G A18U A56U U67A gave a self-cleavage of 0.11. Variant C14U A28G A57G has a self-cleavage of 0.72. Work on A15G A18G G24A A57C yielded a self-cleavage of 0.2. With C14A A18G U48A U60C the self-cleavage was 0.07. C14A A18U A56U U66C gave a self-cleavage of 0.08. A15G A20G A28U A35G showed a self-cleavage of 0.16. Work on A13U U69C U72C U80C yielded a self-cleavage of 0.5. In the case of C14U G19C A47G G63U, the self-cleavage is reported as 0.3. For A15G A21U G24C U54A A65G U69C, the self-cleavage was 0.06. Work on A15C G46C C62U yielded a self-cleavage of 0.12. With C14U A20G U67C U72C the self-cleavage was 1.23. A15G A28C C44U U66C showed a self-cleavage of 0.08. Variant A15G A20U U78A has a self-cleavage of 0.22. In the case of C14U U26C U67C C71A, the self-cleavage is reported as 0.24. Variant C14U U25C A35U U41A has a self-cleavage of 0.16. A15C A18C A64G gave a self-cleavage of 0.56. With A15G A20G C23G A28C A56G the self-cleavage was 0.14. Work on A15C U26A C32U yielded a self-cleavage of 0.25. With C14U A15G G33U U49A A56G C59G the self-cleavage was 0.11. With A15C A28C G33A A35U U48C A75U U80C the self-cleavage was 0.05. In the case of A15G A21G U25C G30A U60A, the self-cleavage is reported as 0.25. In the case of A15G A20U G24C C38U U41C, the self-cleavage is reported as 0.19. A15G A18G C40U A57G U58A A65G gave a self-cleavage of 0.07. A15G A20G C32A gave a self-cleavage of 0.12. A15G A20G A35G U41C gave a self-cleavage of 0.47. A15G A18U U60A A75U gave a self-cleavage of 0.17. A15G A18G C32U A35G showed a self-cleavage of 0.1. For A15C U41A G53C U58C U66C, the self-cleavage was 0.08. C14U U31G A45C U48C C62A gave a self-cleavage of 0.21. C14G A21U U43G U72C showed a self-cleavage of 0.18. For A15C G42A A64G U76C, the self-cleavage was 0.21. For C14G U25C A65U, the self-cleavage was 0.11. With A15G A21G A28U A47U U51C U69C the self-cleavage was 0.08. With A15C A21G U25A A64G the self-cleavage was 0.11. For A15G A20G A56U, the self-cleavage was 0.14. With A15C U51A U67C U78C the self-cleavage was 0.43. Work on A15G A21G A64G yielded a self-cleavage of 0.36. In the case of C14U U48C U72C, the self-cleavage is reported as 0.72. Variant C14A A45G U51A A56G has a self-cleavage of 0.27. For A15G A20U A21U G36A A47G A77G, the self-cleavage was 0.18. A15G A18U U26A G33U U76A gave a self-cleavage of 0.18. Work on C14U G16U A35G U43C U51A U80C yielded a self-cleavage of 0.91. In the case of C14U A15G U41A, the self-cleavage is reported as 0.13. Work on C14U A35G U49C A56G U69C yielded a self-cleavage of 1.23. Work on A15G A18U U54C yielded a self-cleavage of 0.18. In the case of A15C U31C U41C U72A, the self-cleavage is reported as 0.43. Variant A15G A21G A28G U51C U72C A75U has a self-cleavage of 0.46. Work on A15C A21G A56G U67A yielded a self-cleavage of 0.16. Work on A15G A21G C27U A35G A65U U66A yielded a self-cleavage of 0.1. For C14G U25C U60C, the self-cleavage was 0.28. With A15G A20U G46A the self-cleavage was 0.23. Variant C14U A18G A21G has a self-cleavage of 0.31. With C14U A45G U51A U69G the self-cleavage was 0.36. In the case of A15G A20G G55A U72C, the self-cleavage is reported as 0.76. In the case of A15C A20G U26C U41C U54A A56U U58A, the self-cleavage is reported as 0.23. A15C U31A U41A U43C U48C G61A A65G showed a self-cleavage of 0.05. Variant C14U A21G U25A U66C U72A has a self-cleavage of 0.05. C14U A20G U67C A75C gave a self-cleavage of 1.09. C14U U66C U69C U72G showed a self-cleavage of 0.25. For A15G A20G C29U U31C A45G, the self-cleavage was 0.16. For A15C A20G U26C U41C U54A A56U, the self-cleavage was 0.07. With C14U C32G C62U U74C the self-cleavage was 0.11. Variant C14U U41G A57G A77G has a self-cleavage of 0.09. C14A A18G A20G U60C showed a self-cleavage of 0.23.
